Assay in all cases: Primary Screen for Target Class Profiling of Small Molecule Inhibitors of Methyltransferases
The target in assay [1] is Glycine N-methyltransferase (Homo sapiens) (UniProt Q14749). The following applies: purified enzyme, MTase-Glo SAH luminescence; measured here: GNMT inhibition; at 40 µM; stronger effect = lower value. Put shortly:
(§1)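 Each enzyme was reacted with SAM and its substrate, with compounds tested once at 40 uM; SAH formed was read by MTase-Glo luminescence.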

Assay [2] deals with Guanidinoacetate N-methyltransferase (Homo sapiens) (UniProt Q14353). As to conditions: purified enzyme, MTase-Glo SAH luminescence; measured here: GAMT inhibition; at 40 µM; stronger effect = lower value. The method in brief:
as §1

Assay [3] has as its target Histamine N-methyltransferase (Homo sapiens) (UniProt P50135). The following applies: purified enzyme, MTase-Glo SAH luminescence; measured here: HNMT inhibition; at 40 µM; stronger effect = lower value. Put shortly: as §1
Assay [4] has as its target Nicotinamide N-methyltransferase (Homo sapiens) (UniProt P40261). As to conditions: purified enzyme, MTase-Glo SAH luminescence; measured here: NNMT inhibition; at 40 µM; stronger effect = lower value. Put shortly: as §1
The target in assay [5] is Phenylethanolamine N-methyltransferase (Homo sapiens) (UniProt P11086). The following applies: purified enzyme, MTase-Glo SAH luminescence; measured here: PNMT inhibition; at 40 µM; stronger effect = lower value. The method in brief:
as §1

Structures are written as SMILES. The list shows a part of the results. Further columns of the screen follow, without active or inactive calls.
% is set by controls: 0 for no effect and ±100 for the full control effect.

With `Cc1cnc(C2CCOCC2)n1C1CCCN(S(=O)(=O)c2ccccc2)C1` (stereo not drawn), the activity change, negative = inhibition is -6.23% in assay [1]; 4.54% in assay [2]; 2.94% in assay [3]; -4.44% in assay [4]; 15.4% in assay [5].

Take `COc1ccccc1CNC(=O)C1(C)Cn2c(cc3ccccc32)C(=O)N1Cc1cccc(Cl)c1` (stereo not drawn): the activity change, negative = inhibition in assay [1] is -4.26%; in assay [2], 2.71%; in assay [3], -7.78%; in assay [4], -8.47%; in assay [5], -7.24%.

With `CN1C(=O)CC[C@]2(C(=O)N3CCCCC3)CCCC[C@@H]12`, the activity change, negative = inhibition in assay [1] was 0.155%; in assay [2], -0.115%; in assay [3], 1.34%; in assay [4] it was -0.878%; in assay [5] it was 2.23%.

With `CCCn1cc(S(=O)(=O)N[C@H](CC)C2CC(O)C2)cn1` (stereo partly drawn), the activity change, negative = inhibition in assay [1] was -2.11%; in assay [2] it was 0.55%; in assay [3] it was 0.604%; in assay [4] it was 5.91%; in assay [5], 0.71%.

In the case of `Cc1ccc(Cn2nc3n(CCC(C)C)c(=O)c4ccc(C(=O)NC5CCCC5)cc4n3c2=O)cc1`, the activity change, negative = inhibition in assay [1] came to 3.04%; in assay [2] it was 0%; in assay [3], 5.56%; in assay [4], 5.45%; in assay [5], 3.54%.

In the case of `CCc1nc(C)sc1C(=O)N1C[C@@H](C(=O)O)[C@H](c2cccc(OC)c2)C1`, the activity change, negative = inhibition was -1.99% in assay [1]; -1.21% in assay [2]; 0.586% in assay [3]; -3.53% in assay [4]; -5.41% in assay [5].

On to `Cc1ccc(NC(=O)Cn2nc3n(CCc4ccccc4)c(=O)c4ccccc4n3c2=O)c(Cl)c1`, for which the activity change, negative = inhibition was determined as 1.66% in assay [1]; 0% in assay [2]; 3.26% in assay [3]; 2.7% in assay [4]; 1.33% in assay [5].

On to `CC1=CC(=O)[C@]2(O[C@@H]3O[C@@H](C)[C@H](O)[C@@H](O)[C@H]3OC(=O)/C=C/c3ccccc3)C=CO[C@@H](O[C@@H]3O[C@H](CO)[C@@H](O)[C@H](O)[C@H]3O)[C@H]12`, for which the activity change, negative = inhibition in assay [1] is 0%; in assay [2], 0.636%; in assay [3], 1.29%; in assay [4], -11.5%; in assay [5] it was 4.07%.

In the case of `COc1cncc([C@@H](NC(=O)Cc2ccsc2)C2CC(O)C2)c1` (stereo partly drawn), the activity change, negative = inhibition in assay [1] was -1.61%; in assay [2] it was -3.25%; in assay [3], 0.146%; in assay [4], -1.77%; in assay [5], 2.03%.

In the case of `Oc1c(C(c2ccccc2)N2CCOCC2)sc2nc(-c3ccco3)nn12` (stereo not drawn), the figures for the activity change, negative = inhibition in assay [2], in assay [4] and in assay [5] were -10.8%, -22.7% and -2.76%, respectively.

As to `CCCCN(CC)CCN1C(=O)c2ccc(-c3ccco3)n2CC1(C)C(=O)NC1CCCCCCC1` (stereo not drawn), the activity change, negative = inhibition in assay [1] is 0.926%; in assay [2] it was 4.09%; in assay [3], -1.4%; in assay [4] it was -8.34%; in assay [5], -0.31%.

Take `C=CCN1CCN(C(=O)[C@@H]2Cc3c[nH]c4cccc(c34)[C@H](CC(C)C)N2)CC1`: the activity change, negative = inhibition is -10% in assay [1]; -8.98% in assay [2]; -35.3% in assay [3]; -13.5% in assay [4]; -10.4% in assay [5].

As for `CN1C(=O)c2cc(C(=O)NCCc3ccccc3Cl)nn2CC1(C)C(=O)NCc1ccccc1` (stereo not drawn), the activity change, negative = inhibition in assay [1] worked out at 3.1%; in assay [2] it was 0%; in assay [3], 1.95%; in assay [4], 8.5%; in assay [5], 2%.

As for `CC1(C(=O)NCc2ccccc2)Cn2cnc(C(=O)NCc3ccccc3Cl)c2C(=O)N1C1CC1` (stereo not drawn), the activity change, negative = inhibition in assay [1] was -3.87%; in assay [2] it was -0.724%; in assay [3], 0.332%; in assay [4], -4.56%; in assay [5], 2.6%.

Turning to `COc1ccc(CN2C(=O)CSc3c(c4ccccc4n3C)C2C(=O)NCCCOC(C)C)cc1` (stereo not drawn), the activity change, negative = inhibition in assay [1] is 4.22%; in assay [2], -7.21%; in assay [3], 6.65%; in assay [4], -7.54%; in assay [5], -2.99%.

Take `CC1=C2C[C@H]3O[C@@]3(C)CCC3O[C@@]3(C)C[C@@]2(O)OC1=O` (stereo partly drawn): the activity change, negative = inhibition in assay [1] was -0.535%; in assay [2], 7.46%; in assay [3] it was 7.44%; in assay [4], -4.01%; in assay [5] it was 7.76%.

With `C/C=C/C=C/C(O)=C1\C(=O)[C@]2(C)C3C(C(=O)CC/C=C/C)=C(O)C4(C)C1[C@]1(C)O[C@@]4(O)[C@@]3(C)O[C@@]12O`, the activity change, negative = inhibition is -1.86% in assay [1]; -13.9% in assay [2]; -2.51% in assay [3]; -25.9% in assay [4]; -2.43% in assay [5].

Turning to `O=C1NCCCCCCN(C(=O)c2cc(C3CC3)[nH]n2)[C@H]2CCCC[C@@H]12`, the activity change, negative = inhibition in assay [1] is -1.49%; in assay [2] it was 0.725%; in assay [3], -0.529%; in assay [4], -2.11%; in assay [5], 3.27%.

In the case of `Cc1cc(NS(=O)(=O)c2cc3c(cc2C)n(C)c(=O)n3C)ccc1Br`, the activity change, negative = inhibition in assay [1] was -4.42%; in assay [2], 10%; in assay [3], 3.58%; in assay [4] it was -2.46%; in assay [5], 0.953%.

As for `COCC(c1ccccn1)N(C)Cc1cn(-c2ccccc2)nn1` (stereo not drawn), the activity change, negative = inhibition in assay [1] is -3.75%; in assay [2], -9.19%; in assay [3], -8.75%; in assay [4] it was -8.53%; in assay [5], -2.82%.

Take `Cc1ccc(NC(=O)Cn2c(=O)oc3cc(S(=O)(=O)NCc4ccccc4)ccc32)cc1C`: the activity change, negative = inhibition was -4.44% in assay [1]; 2.62% in assay [2]; 3.81% in assay [3]; 4.29% in assay [4]; 0.513% in assay [5].

On to `O=C(NCc1ccc(Cl)cc1)c1cc2n(n1)CC(c1ccc3c(c1)OCO3)OC2` (stereo not drawn), for which the activity change, negative = inhibition in assay [1] is -2.88%; in assay [2] it was -5.82%; in assay [3], -4.26%; in assay [4], -1.87%; in assay [5] it was -6.94%.

`CC1(C(=O)NC2CCCCC2)Cn2c(cc3ccccc32)C(=O)N1Cc1cccc(F)c1` (stereo not drawn): the activity change, negative = inhibition in assay [1] is -2.9%; in assay [2], 3.45%; in assay [3], 1.38%; in assay [4] it was 4.25%; in assay [5], 1.44%.

Regarding `COc1ccccc1CNC(=O)CCc1nnc2n(Cc3ccccc3Cl)c(=O)c3ccccc3n12`, the activity change, negative = inhibition in assay [1] was 0.869%; in assay [2], 0%; in assay [3] it was 7.85%; in assay [4], 7.17%; in assay [5] it was 0.962%.

As for `O=C(c1cnc2n1CCN(CCc1ccccc1)CC2)N1CCC(c2ccccc2)CC1`, the activity change, negative = inhibition in assay [1] was -2.06%; in assay [2], 2.5%; in assay [3], 1.24%; in assay [4], -10.4%; in assay [5], -1.34%.

In the case of `COc1ccc(S(=O)(=O)N[C@H]2C[C@H]3C(=O)NC[C@@H](CCC(=O)NCc4ccccc4)N3C2)cc1`, the activity change, negative = inhibition was -4.59% in assay [1]; -1.46% in assay [2]; 1.05% in assay [3]; -6.05% in assay [4]; -1.73% in assay [5].

On to `O=C(c1ccc(=O)[nH]n1)N1CCc2ncnc(N3CCOCC3)c2CC1`, for which the activity change, negative = inhibition was -6.46% in assay [1]; -14% in assay [2]; -4.73% in assay [3]; -10.5% in assay [4]; -9.96% in assay [5].

For the molecule `CCOc1ccc(N2C(=O)c3c(C(=O)OC)ncn3CC2(C)C(=O)NCc2ccccc2)cc1` (stereo not drawn), the activity change, negative = inhibition was 0.835% in assay [1]; 0% in assay [2]; 10.6% in assay [3]; -1.8% in assay [4]; 6.41% in assay [5].

`COc1ccc(CCNC(=O)c2ccc(CN3C(=O)CCn4nccc43)cc2)cc1OC`: the activity change, negative = inhibition in assay [1] was -21.3%; in assay [2], -15.9%; in assay [3], -9.14%; in assay [4], -12.3%; in assay [5], -33.4%.

Source of the values: PubChem BioAssay AID1745853 (National Center for Advancing Translational Sciences (NCATS), 2022).
